# Results: PubChem BioAssay (NCI)
# Where a structure was tested more than once in an assay, its records may differ in their call.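 The test compound was applied at a single concentration to cells in 96-well plates for 48 hours, and percent growth was recorded.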 For part of its entries the source gives two or more results. The other results are left out here. Rule for the calls: active = growth percent below 10; inactive = the rest. The source may hold further records. This drug was run again and again over the years, at its own concentration, as given; each value is one run. Counts like (3×) say how often a value occurs here.
# What was measured:
# [1] = tested on: OVCAR-3 ovarian; assay: NCI-60 one-dose screen, 48 h (100 = growth as untreated, 0 = no growth, -100 = all killed)
# [2] = tested on: HS 578T breast; assay: as above; conditions: 0.25 µM
smiles,measurement,setting,value
COc1cccc2c1C(=O)c1c(O)c3c(c(O)c1C2=O)C[C@@](O)(C(=O)CO)C[C@@H]3OC1CC(N)C(O)C(C)O1 (stereo not given in full),growth,"[1]; 0.25 µM, runs of 2020","inactive: 57.8, 59.4, 78.8, 58, 54.1, 67.9, 66.7 (2×), 64.4, 63.9, 61.9, 69.1, 65.1, 65.4, 64.3, 83.2, 66.5, 76.1, 62.8, 63.8, 70.6, 71.7, 81.1%"
same,growth,"[1]; 0.25 µM, runs of 2021","inactive: 77.3 (2×), 74, 71.4, 65.6, 57.6, 64.3, 75, 74.8, 58.2, 62.8, 63.4 (2×), 62.2, 61, 68.6, 65.1, 61.2, 81, 72.1, 66.2, 70.2, 63.1, 63.9, 63.8, 59.7, 49.8, 62.6, 69.9, 70.7, 63%"
same,growth,"[1]; 0.25 µM, runs of 2022","inactive: 24.7, 25.9, 52.2, 53.6, 54.6, 38.6, 54, 60.3, 70, 50.3, 61.4, 74.9, 38.1, 69.4, 54.1, 56.5, 47.3, 85.7, 92.3, 62.1, 94.3, 86.6, 93.3, 65.5, 65.6, 62.3, 74.3% and active: 7.37%"
same,growth,"[1]; 25 µM, runs of 1991","active: 0.251, -14, -16.5, -23.6, 5.38, -25.5, 0.819, -3.54, -8.31, -12.2, 4.16, 3.27, -4.7, -23.1, -10.9, -11.1, -12% and inactive: 27.8%"
same,growth,"[1]; 25 µM, runs of 1992","active: -16.4, -32.6, -32.5, -4.02, 3.93, -2.44, -2.03, -0.142, -5.73, -31.8, -36, -35.9 (2×), -23.1, -28.4, 6.28, -2.75, 3.67, -2.5, -6.14, -16.3, -3.44, -34.7, -24, -27.1, -6.11, -21.7, -17.8, 6.11, -24.4, -6.68, -23.3, 2.42, -19.4, 2.26, -7.75, 2.19, -9.55, 0.661, -14.6, -66.7, -27.9, -5.98, -13.2, -23.2, -17.6, -28.7, -43.2, -18.1 (2×), 2.88, -9.98, -7.99, -26.8 (2×), -18.5, -17.7, -28.1, -22.9, -85.6, -82.2, -87.3, -0.559, 2, -13.4, -46.5, -25.1, -10.5, -43.9, -28.9, -45.3, -36.9, -18.3, -56.7, 1.46, -1.52, 2.13, 0.986, -43.7, -19.2, -12.2, 0.464, -31.3, -40.9, -23, -25.3, -21.2, -21.8, -32.4, 1.31, -11, -7.53, -9.92, -34.9, -28.5, -35.8, -40.5, -33, -46.3, 6.1, -3.14, -12.9, -4.04, -8.75, -22.4, -33.7, 5.82, -15.6, -4.81, -28.8, -5.52, -27, -44.5, 0.547, -3.75, -23.6, -15, -49.1% and inactive: 32.6%"
same,growth,"[1]; 25 µM, runs of 1993","active: -12.6, 6.55, -21.9 (2×), -17.8, -17.7 (2×), -28.5, -31.9, -30.2, 0.9, -2.16, 0.858, 5.9, -20.5, -28.7, -34.8, -8.12, -13.9 (2×), 2.06, -22.4, -25.4, -12.8, -5.41, -36.2, -3.36, -13.4, -27.1, -33.2, -1.03, -14.4, -7.57, -8.44, -14.2, -12.9, -4.44, 4.97, -21.3, -11.2, -14.9, -12.4, -24.7, -8.14% and inactive: 13%, 21.9%"
same,growth,"[1]; 25 µM, runs of 1994","active: -22.9, -26.5, -33.4, -10.1, -18.3 (2×), -0.255, -19.8 (2×), 8.59, 7.14, -8.83, -21.4, -4.85, 2.28, -23, -93.5, 5.26, 5.07, -35, -0.634, -24.2, 0.124, 4.57, -8.93, -21.2, 3.6, -26.8, -31.4, -10.9% and inactive: 11.2%"
same,growth,"[1]; 25 µM, runs of 1995","active: -14.7, 1.3, -11.5, -34.8, -15.2, -35, 8.23 (2×), 8.82, -17.8, -39, 1.54, -13.2, -6.35, 2.02, 4.81, -29.8, -25.1, -12.4, -24, -14.2, -26.4, -5.96, -23.8, -2.99, 9.68, -33.4, -2.17, -27.2, -27.7, -18.4, 4.02, -27.8, -4.01, -22.3% and inactive: 19.4%"
same,growth,"[1]; 25 µM, runs of 1996","active: 0.724, -16.9, 5.05, 7.67, 9.42, 4.16, 7.93, -2.26, 2.18, -8.94, -3.08, -4.34, -19.7, -9.79, -23, -13.4, -6.91, -17.2, -4.02, -12, -38.6, -5.17, -27.8 (2×), -15, -11.6, -11.3, -4.48, -0.761, -14.8, -8.53, -7.4, -19.4, -29.4, -10, -4.29, -0.716, -8.46, -28.5 (2×), -23.9, -14.6, 1.93, -24.4, -9.82, -15.6, -16.2, -12.6, 1.8, 6.05, -21.5, 3.14% and inactive: 45.1, 106, 12.6, 22.5%"
same,growth,"[1]; 25 µM, runs of 1997","active: -6.63, -7.75, -22.6, -8.29, -27.9, -25.7, 6.32, -10.6, -10.2, -14.4, -1.87, -31.3, -32.7, -10.4, -31.5, -10.5, 7.14, -14.6, -1.15, -2.66, -28.8, -21.5, 4.4, -28.3, -0.639, -30.8 (2×), -37.3, -3.69, 1.14, -22.2, -26.3, -41.5, -12.1, -10.3, -32.5, -50.8, -8.58, -15.1, -16, -37, -40.4% and inactive: 18.4%"
same,growth,"[1]; 25 µM, runs of 1998","active: -6.3, -28.4, -11.7, 4.07, -6.36, -30.9, -8.02, -28.9, -9.21, -24.5, -35, -25.4, 9.88, -20.1, 0.0181, -3.18, -21, 7.22, 4.41, -24.3, 1.03% and inactive: 21.7%"
same,growth,"[1]; 25 µM, runs of 1999","active: -38.9, -30.3, -17.6, -9.08, -51.7, 2.53, -81, -5.68, -62.7, -71.7, -40.3, -48.6, -100, -64.2, -66.5% and inactive: 24%, 42.8%, 18.5%"
same,growth,"[1]; 25 µM, runs of 2000","active: 5.01, -100, -74.8, -78.1%"
same,growth,[2]; runs of 2006,active: -16.1% and inactive: 41.3%
same,growth,[2]; runs of 2007,"inactive: 41.5, 65.4, 47.9, 39.8, 31.2, 56.1, 50.7, 60, 55.8, 51.3, 57.5, 189, 59.8, 33.4, 78.9 (2×), 11.2, 35, 51.1, 67.5, 58.4, 63.8, 38.1, 59.2, 24, 66.8, 66.2, 15.9, 77, 58.1 (2×), 56, 37.2, 39, 57.4, 50.2, 49, 70.5, 64.5% and active: 7.36%"
